Results are given in words; binding and its absence hold for the method and conditions named. In cells and extracts the contact can be indirect. Some entries that bind do so weakly or less than the wild type. Tags and fused reporters may be left off the sequences shown.

Amino acid sequences for entries named in this document (tags omitted).
UniProt P31751: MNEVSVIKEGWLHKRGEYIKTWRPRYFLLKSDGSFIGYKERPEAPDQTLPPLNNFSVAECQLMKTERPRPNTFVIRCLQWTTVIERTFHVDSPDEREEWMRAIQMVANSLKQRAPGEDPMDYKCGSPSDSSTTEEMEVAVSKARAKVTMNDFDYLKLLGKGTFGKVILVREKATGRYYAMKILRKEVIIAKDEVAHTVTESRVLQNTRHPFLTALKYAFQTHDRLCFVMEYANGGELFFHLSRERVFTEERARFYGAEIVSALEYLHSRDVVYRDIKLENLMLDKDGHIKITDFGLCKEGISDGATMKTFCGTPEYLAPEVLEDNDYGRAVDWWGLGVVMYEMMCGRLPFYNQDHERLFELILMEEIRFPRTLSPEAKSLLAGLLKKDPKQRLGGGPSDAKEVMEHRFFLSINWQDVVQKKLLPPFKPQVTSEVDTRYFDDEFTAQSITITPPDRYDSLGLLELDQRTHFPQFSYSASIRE

This experiment addresses T1, Aldob, ectopically expressed in Huh7 (tag not told for the experiment) (UniProt P05062).
T1 sequence: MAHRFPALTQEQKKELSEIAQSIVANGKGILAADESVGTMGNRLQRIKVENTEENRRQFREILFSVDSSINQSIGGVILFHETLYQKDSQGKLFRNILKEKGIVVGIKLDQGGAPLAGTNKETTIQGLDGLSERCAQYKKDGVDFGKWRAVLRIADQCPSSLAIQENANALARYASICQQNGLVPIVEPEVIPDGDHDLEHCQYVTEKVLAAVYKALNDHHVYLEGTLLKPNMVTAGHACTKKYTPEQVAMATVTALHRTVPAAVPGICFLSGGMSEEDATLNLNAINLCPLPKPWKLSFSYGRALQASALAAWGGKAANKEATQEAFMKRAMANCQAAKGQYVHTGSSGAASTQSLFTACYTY
Description: co-IP; lysates of Huh7 cells transfected with the indicated constructs (and siRNAs) or of LM3-Aldob cells; anti-Flag or anti-Myc affinity gel or anti-Akt1 antibody with Protein A/G beads, overnight at 4°C, washed 4 times; in some panels cells serum-starved then 0.1 μM insulin or 100 ng/ml EGF, or MK2206 (1 μM) for 24 hours.

With “Akt2, ectopically expressed in Huh7 (from UniProt P31751 1-481)”, the binding entry was “binds”.

The record behind these values is PMC7744066.
